# The other results are listed elsewhere or left out.
# Legend:
# Test in all cases: glycan array binding signal (z-score within array); higher = stronger binding
# Details in all cases: glycan notation: IUPAC condensed, linker removed
# [1] = target: Neu5Ac(a2-6)Gal(b1-3)GlcNAc(b1-3)[Gal(b1-4)GlcNAc(b1-6)]Gal(b1-4)Glc
# How it was run: (§1)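 Glycan array data were curated from 3228 arrays in the Consortium for Functional Glycomics database and kept only where the protein sequence was available. Glycan names were converted to IUPAC-condensed notation, and columns mapping to the same glycan were averaged. The binding signal is a within-array Z-score, averaged across arrays of the same protein sequence at different concentrations or buffers and across linkers. Negative Z-scores can be read as non-binding.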
# [2] = target: Neu5Ac(a2-6)Gal(b1-4)Glc
# How it was run: as §1
# [3] = target: Neu5Ac(a2-6)Gal(b1-4)GlcNAc
# How it was run: as §1
# [4] = target: Neu5Ac(a2-6)Gal(b1-4)GlcNAc(b1-2)Man(a1-3)Man(b1-4)GlcNAc(b1-4)GlcNAc
# How it was run: as §1
# [5] = target: Neu5Ac(a2-6)Gal(b1-4)GlcNAc(b1-2)Man(a1-3)[Gal(b1-4)GlcNAc(b1-2)Man(a1-6)]Man(b1-4)GlcNAc(b1-4)GlcNAc
# How it was run: as §1
# [6] = target: Neu5Ac(a2-6)Gal(b1-4)GlcNAc(b1-2)Man(a1-3)[GlcNAc(b1-2)Man(a1-6)]Man(b1-4)GlcNAc(b1-4)GlcNAc
# How it was run: as §1
# [7] = target: Neu5Ac(a2-6)Gal(b1-4)GlcNAc(b1-2)Man(a1-3)[GlcNAc(b1-2)Man(b1-4)GlcNAc(b1-2)Man(a1-6)]Man(b1-4)GlcNAc(b1-4)GlcNAc
# How it was run: as §1
# [8] = target: Neu5Ac(a2-6)Gal(b1-4)GlcNAc(b1-2)Man(a1-3)[Man(a1-6)]Man(b1-4)GlcNAc(b1-4)GlcNAc
# How it was run: as §1
# [9] = target: Neu5Ac(a2-6)Gal(b1-4)GlcNAc(b1-2)Man(a1-3)[Neu5Ac(a2-6)Gal(b1-4)GlcNAc(b1-2)Man(a1-6)]Man(b1-4)GlcNAc(b1-4)GlcNAc
# How it was run: as §1
# [10] = target: Neu5Ac(a2-6)Gal(b1-4)GlcNAc(b1-2)Man(a1-6)Man(b1-4)GlcNAc(b1-4)GlcNAc
# How it was run: as §1
# [11] = target: Neu5Ac(a2-6)Gal(b1-4)GlcNAc(b1-2)Man(a1-6)[Gal(b1-4)GlcNAc(b1-2)Man(a1-3)]Man(b1-4)GlcNAc(b1-4)GlcNAc
# How it was run: as §1
# [12] = target: Neu5Ac(a2-6)Gal(b1-4)GlcNAc(b1-2)Man(a1-6)[GlcNAc(b1-2)Man(a1-3)]Man(b1-4)GlcNAc(b1-4)GlcNAc
# How it was run: as §1
# [13] = target: Neu5Ac(a2-6)Gal(b1-4)GlcNAc(b1-2)Man(a1-6)[Man(a1-3)]Man(b1-4)GlcNAc(b1-4)GlcNAc
# How it was run: as §1
# [14] = target: Neu5Ac(a2-6)Gal(b1-4)GlcNAc(b1-3)Gal(b1-3)GlcNAc
# How it was run: as §1
# [15] = target: Neu5Ac(a2-6)Gal(b1-4)GlcNAc(b1-3)Gal(b1-4)GlcNAc
# How it was run: as §1
# [16] = target: Neu5Ac(a2-6)Gal(b1-4)GlcNAc(b1-3)Gal(b1-4)GlcNAc(b1-3)Gal(b1-4)GlcNAc
# How it was run: as §1
# [17] = target: Neu5Ac(a2-6)Gal(b1-4)GlcNAc(b1-3)Gal(b1-4)[Fuc(a1-3)]GlcNAc(b1-3)Gal(b1-4)[Fuc(a1-3)]GlcNAc
# How it was run: as §1
# [18] = target: Neu5Ac(a2-6)Gal(b1-4)GlcNAc(b1-3)GalNAc
# How it was run: as §1
# [19] = target: Neu5Ac(a2-6)Gal(b1-4)GlcNAc6S
# How it was run: as §1
# [20] = target: Neu5Ac(a2-6)GalNAc
# How it was run: as §1
# [21] = target: Neu5Ac(a2-6)GalNAc(b1-4)GlcNAc
# How it was run: as §1
# [22] = target: Neu5Ac(a2-6)GlcNAc(b1-4)GlcNAc
# How it was run: as §1
# [23] = target: Neu5Ac(a2-6)GlcNAc(b1-4)GlcNAc(b1-4)GlcNAc
# How it was run: as §1
# [24] = target: Neu5Ac(a2-8)Neu5Ac
# How it was run: as §1
# [25] = target: Neu5Ac(a2-8)Neu5Ac(a2-3)Gal(b1-4)Glc
# How it was run: as §1
# [26] = target: Neu5Ac(a2-8)Neu5Ac(a2-3)[Gal(b1-3)GalNAc(b1-4)]Gal(b1-4)Glc
# How it was run: as §1
# [27] = target: Neu5Ac(a2-8)Neu5Ac(a2-3)[GalNAc(b1-4)]Gal(b1-4)Glc
# How it was run: as §1
# [28] = target: Neu5Ac(a2-8)Neu5Ac(a2-8)Neu5Ac
# How it was run: as §1
# [29] = target: Neu5Ac(a2-8)Neu5Ac(a2-8)Neu5Ac(a2-3)Gal(b1-4)Glc
# How it was run: as §1
# [30] = target: Neu5Ac(a2-8)Neu5Ac(a2-8)Neu5Ac(a2-3)[GalNAc(b1-4)]Gal(b1-4)Glc
# How it was run: as §1
# [31] = target: Neu5Ac(a2-8)Neu5Ac(a2-8)Neu5Ac(a2-8)Neu5Ac(a2-3)[GalNAc(b1-4)]Gal(b1-4)Glc
# How it was run: as §1
# [32] = target: Neu5Ac(b2-6)Gal(b1-4)GlcNAc
# How it was run: as §1
# [33] = target: Neu5Ac(b2-6)GalNAc
# How it was run: as §1
# [34] = target: Neu5Ac9Ac(a2-3)Gal(b1-3)GlcNAc
# How it was run: as §1
# [35] = target: Neu5Ac9Ac(a2-3)Gal(b1-4)GlcNAc
# How it was run: as §1
# [36] = target: Neu5Ac9Ac(a2-6)Gal(b1-4)GlcNAc
# How it was run: as §1
# [37] = target: Neu5Gc(a2-3)Gal(b1-3)GlcNAc
# How it was run: as §1
# [38] = target: Neu5Gc(a2-3)Gal(b1-3)[Fuc(a1-4)]GlcNAc
# How it was run: as §1
# [39] = target: Neu5Gc(a2-3)Gal(b1-4)Glc
# How it was run: as §1
# [40] = target: Neu5Gc(a2-3)Gal(b1-4)GlcNAc
# How it was run: as §1
# [41] = target: Neu5Gc(a2-3)Gal(b1-4)[Fuc(a1-3)]GlcNAc
# How it was run: as §1
# [42] = target: Neu5Gc(a2-6)Gal(b1-4)GlcNAc
# How it was run: as §1
# [43] = target: Neu5Gc(a2-6)GalNAc
# How it was run: as §1
# [44] = target: Neu5Gc(b2-6)Gal(b1-4)GlcNAc
# How it was run: as §1
binder,measurement,setting,value
Gal 3 (Canis lupus) (protein) MADSFSLNDALSGSGNPNPQGWPGPWGNQPAGAGGYPGASYPGAYPGQAPPGGYPGQAPPGGYPGQAPPGGYPGQAPPGGYPGQAPPGGYPGQAPPGTYPGPTAPAYPGPTAPGTQPGQPSGPGAYPPPGQPSAPGAYPAAGPFGIPAGPLTVPYDLPLPGGVKPRMLITILGTVRPSANRLALDFKRGNDVAFHFNPRFNEDNKRVIVCNTKLDNIWGKEERQAAFPFESGKPFKIQVLVESDHFKVAVNDAHLLQYNHRMKNLPEISKLGISGDIDLTSASYAMI,glycan array binding signal (z-score),[1],-0.158
same,glycan array binding signal (z-score),[2],-0.246
same,glycan array binding signal (z-score),[3],-0.268
same,glycan array binding signal (z-score),[4],-0.258
same,glycan array binding signal (z-score),[5],-0.259
same,glycan array binding signal (z-score),[6],-0.235
same,glycan array binding signal (z-score),[7],0.061
same,glycan array binding signal (z-score),[8],-0.251
same,glycan array binding signal (z-score),[9],-0.244
same,glycan array binding signal (z-score),[10],-0.258
same,glycan array binding signal (z-score),[11],-0.181
same,glycan array binding signal (z-score),[12],-0.265
same,glycan array binding signal (z-score),[13],-0.263
same,glycan array binding signal (z-score),[14],2.17
same,glycan array binding signal (z-score),[15],1.94
same,glycan array binding signal (z-score),[16],5.91
same,glycan array binding signal (z-score),[17],-0.23
same,glycan array binding signal (z-score),[18],-0.241
same,glycan array binding signal (z-score),[19],-0.26
same,glycan array binding signal (z-score),[20],-0.257
same,glycan array binding signal (z-score),[21],-0.265
same,glycan array binding signal (z-score),[22],-0.251
same,glycan array binding signal (z-score),[23],-0.262
same,glycan array binding signal (z-score),[24],-0.259
same,glycan array binding signal (z-score),[25],-0.254
same,glycan array binding signal (z-score),[26],-0.155
same,glycan array binding signal (z-score),[27],-0.257
same,glycan array binding signal (z-score),[28],-0.258
same,glycan array binding signal (z-score),[29],-0.256
same,glycan array binding signal (z-score),[30],-0.261
same,glycan array binding signal (z-score),[31],-0.253
same,glycan array binding signal (z-score),[32],-0.272
same,glycan array binding signal (z-score),[33],-0.254
same,glycan array binding signal (z-score),[34],-0.256
same,glycan array binding signal (z-score),[35],-0.18
same,glycan array binding signal (z-score),[36],-0.27
same,glycan array binding signal (z-score),[37],-0.109
same,glycan array binding signal (z-score),[38],-0.262
same,glycan array binding signal (z-score),[39],-0.253
same,glycan array binding signal (z-score),[40],-0.141
same,glycan array binding signal (z-score),[41],-0.265
same,glycan array binding signal (z-score),[42],-0.267
same,glycan array binding signal (z-score),[43],-0.259
same,glycan array binding signal (z-score),[44],-0.25
